# Reference: the supplement of paper PMC3334620
# Whole data set: some 33,000 sequences, median “E-score (-0.5 to 0.5)” near -0.041, cut for the highest 2% near 0.37. Some of the results follow.
# Target: T1, Ecm22 (UniProt Q05958)
# T1 sequence: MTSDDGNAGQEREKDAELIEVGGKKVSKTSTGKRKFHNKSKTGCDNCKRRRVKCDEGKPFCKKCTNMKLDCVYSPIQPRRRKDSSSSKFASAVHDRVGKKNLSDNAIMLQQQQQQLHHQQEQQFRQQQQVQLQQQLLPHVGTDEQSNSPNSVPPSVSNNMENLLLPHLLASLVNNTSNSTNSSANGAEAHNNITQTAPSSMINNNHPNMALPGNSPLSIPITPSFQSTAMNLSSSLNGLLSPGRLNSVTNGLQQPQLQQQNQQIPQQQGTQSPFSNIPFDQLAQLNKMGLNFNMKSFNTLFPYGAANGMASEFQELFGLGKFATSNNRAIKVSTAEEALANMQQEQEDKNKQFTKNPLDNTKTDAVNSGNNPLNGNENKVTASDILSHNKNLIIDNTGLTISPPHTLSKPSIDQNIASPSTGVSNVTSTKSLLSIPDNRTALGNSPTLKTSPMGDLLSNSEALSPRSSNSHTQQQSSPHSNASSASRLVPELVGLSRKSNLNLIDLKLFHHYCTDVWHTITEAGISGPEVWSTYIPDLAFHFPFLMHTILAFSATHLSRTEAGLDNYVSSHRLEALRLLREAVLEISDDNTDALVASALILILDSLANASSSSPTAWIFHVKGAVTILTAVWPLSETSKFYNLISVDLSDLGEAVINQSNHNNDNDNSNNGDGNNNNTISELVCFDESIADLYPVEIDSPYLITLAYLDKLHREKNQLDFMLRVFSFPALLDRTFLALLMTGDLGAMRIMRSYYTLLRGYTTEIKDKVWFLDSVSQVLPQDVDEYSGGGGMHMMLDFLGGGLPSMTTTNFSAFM
# Assay: PBM E-score (8-mer binding enrichment) (E-score (-0.5 to 0.5)); higher = stronger / more preferred TF binding; most listed sequences are background and not binding sites
# Details: protein concentration: 200 nM; construct: GST-full length
# Protocol: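 Universal 'all 10-mer' protein binding microarrays (Agilent AMADID 015681) probed with GST-tagged S. cerevisiae TFs (full-length or DBD) made by in vitro transcription/translation (PURExpress), about 100-200 nM. Bound TF was detected with fluorescent anti-GST. Each ungapped 8-mer (which stands for itself and its reverse complement) is scored by the PBM enrichment score (E-score), a modified Wilcoxon-Mann-Whitney statistic from -0.5 to +0.5, computed with the Universal PBM Analysis Suite. Scale: above 0.35 generally sequence-specific binding.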
row,Sequence,PBM E-score
1,AACCCCTC,-0.173
2,ACCTTCCT,-0.175
3,CCGTAGAC,-0.0305
4,CAATAACG,0.0641
5,TATATTCA,0.173
6,GTATTGCA,-0.0224
7,CCAAGTGG,-0.168
8,CCCGATAA,0.039
9,TCTGTGAA,-0.0649
10,TAGTACCA,-0.124
11,CAGTTATA,0.027
12,CGCTCGGA,0.252
13,ATCCAAAC,0.0907
14,CGGCGCGC,0.154
15,AACCAGCC,-0.101
16,AGATTCAC,-0.0229
17,CAAAAAAA,-0.147
18,CATCAGCG,-0.105
19,ACGTGTTC,-0.0369
20,TACGCTAA,0.123
21,TATATGGA,-0.0455
22,AGTTCCAC,0.0665
23,CGTCCGTA,0.295
24,ACCTAGAT,-0.0752
25,CAACAATC,0.0154

row,Sequence,PBM E-score
1,CTTGTCCA,-0.188
2,CTTATTTA,0.099
3,TAGGCCGA,-0.143
4,AAAAGGTC,0.00104
5,CAACATGC,0.122
6,CTGTTTTA,-0.0614
7,CGAGTGGA,0.188
8,GCACCGGA,0.174
9,CCAATACC,-0.128
10,CACGTACG,0.338
11,AGACGGTC,-0.121
12,TGAGAGAA,-0.0473
13,CAACTCGC,0.236
14,CCCTCTAA,-0.292
15,ATAGCGAA,0.0726
16,GTCACAGA,-0.0622
17,CCGCGCCG,0.0837
18,CCCGAGTC,0.0619
19,ATGATGCG,0.0273
20,CAACGTGA,-0.187
21,TACGTTCA,0.276
22,CACACCAC,0.0355
23,AATCCTTC,-0.117
24,GTTTGTTA,0.225
25,ATGCGCGG,-0.136

row,Sequence,PBM E-score
1,AAACTGCG,-0.0389
2,ATGGCAGA,0.0231
3,ATTGATCG,0.139
4,CCATCTTC,-0.0447
5,TCACAGGA,-0.0635
6,TACATATA,0.142
7,AGACTAGA,-0.0514
8,TGTTGTAA,0.00693
9,ACACCAAC,-0.129
10,GGTCCGAA,0.193
11,ACGCTACA,-0.0355
12,GCGGAACC,-0.0442
13,ATAACTTG,-0.0707
14,TCCGTCAA,-0.0989
15,ATTTACAA,0.0448
16,AATAACCG,0.119
17,AATTTCAG,-0.252
18,CCTTGCCC,-0.0702
19,AGCCAAGG,-0.251
20,AAAACTTA,0.0265
21,CTAGTCGC,-0.0918
22,CTAGACAA,-0.156
23,CAGGAACA,-0.0447
24,ACGGCCCC,-0.2
25,ACAGCAAG,0.0222

row,Sequence,PBM E-score
1,GAAGCGGC,-0.0234
2,AACTAGCC,-0.299
3,GACGTGAA,-0.0611
4,AGGGGGGC,-0.266
5,CTACTCGA,0.2
6,AATTAGCA,-0.00156
7,TCACCGAA,-0.039
8,ACGTGATA,0.00631
9,AAAAAAGA,-0.283
10,CATACTCG,0.258
11,AGACAGCA,-0.143
12,ACCGAAAG,0.0863
13,AAGTGTTA,-0.0955
14,TACTACAA,0.0867
15,AGCGGACA,0.124
16,ACATAAAC,0.215
17,ATTAACGC,0.122
18,TCGCCAGA,0.00989
19,AATAAACC,0.165
20,AATATAAC,0.00669
21,AAATGGTT,-0.141
22,CGCCCGAC,0.0719
23,ACACGAGA,0.265
24,CAGTCCAA,-0.301
25,ATGGGCCA,-0.115

row,Sequence,PBM E-score
1,CTAGTACC,-0.121
2,ACGAGAAG,0.313
3,GTAGGATA,-0.0675
4,AATCCACG,-0.0999
5,TAAGCATA,0.121
6,ATGAAGTC,-0.185
7,GCACGTCC,-0.0435
8,CGCGCGCA,0.203
9,ATCCTCGC,0.193
10,AACGGGAC,0.258
11,TGTTCTAA,-0.023
12,CACCCCGA,-0.0815
13,ACTATACC,0.0402
14,CGTACGGA,0.373
15,CCTAGAGG,-0.226
16,AAGTTACT,0.0189
17,GTTGACCA,-0.16
18,ACCCGGGC,-0.159
19,ATAAGCAG,-0.0164
20,ATATCTCG,0.23
21,CATGCGTC,-0.133
22,AGCCGAGC,0.167
23,GAGCGAAC,0.166
24,CGGTATGA,-0.00246
25,GAGCGTCA,-0.107

row,Sequence,PBM E-score
1,TCAATACA,-0.0389
2,AGCGAGTG,0.324
3,AATGAAAG,-0.0378
4,AAGAGTCA,-0.134
5,ATAACACC,0.0151
6,GTGTGCTA,-0.0635
7,AGTCGACG,0.102
8,TGGCGCAA,0.0222
9,GCCGTGAA,-0.117
10,ATTAACTC,0.0465
11,AGAGCACC,-0.191
12,GGTGTCTA,-0.116
13,GGGTGAAA,-0.0786
14,AGATTAAG,-0.0939
15,AGGGTAGC,-0.177
16,CAATGTCA,0.0639
17,ACTATCGG,0.0388
18,ACGTAATC,-0.0452
19,CTTCCGTA,0.319
20,TCACGGCA,-0.106
21,CCGAGGCG,0.0444
22,ACCCCTGA,0.00437
23,ATGGATTC,-0.138
24,AACCCCGG,0.0245
25,CCACATCA,-0.278

row,Sequence,PBM E-score
1,ACTCTGTG,-0.00932
2,AAGGTCAT,-0.16
3,CTGTAACA,-0.236
4,AAAAAAGT,-0.0817
5,AATTGAGT,0.0269
6,CGGTGCCC,-0.0958
7,ATCCAAGG,-0.298
8,GGATGACA,-0.0953
9,CTTAGTTA,0.037
10,ACAGTCGG,0.0297
11,AGTCCTAA,-0.019
12,TAACACGA,0.252
13,TGGACTAA,-0.0691
14,AGCAAAAA,-0.279
15,ACACACGT,-0.0743
16,CTGGGACC,-0.177
17,CCGCGATC,0.108
18,CATTCCAC,-0.133
19,GGCAAGCA,-0.101
20,ACTGTGAC,-0.232
21,AACCATAG,-0.0556
22,CTGCTCAA,-0.201
